Hit rate of the full screen: of about 310,000 compounds, about 14,000 (4.5%) showed an effect of 50% or more. Effects have a minus sign here. This is one part of the list.
target: human ether-à-go-go-related gene (hERG) potassium channel (human, UniProt Q12809); assay: primary screen, population patch clamp on CHO cells stably expressing hERG
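Also: peak tail current of the secondary pulse compared with the same well before compound.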

human ether-à-go-go-related gene (hERG) potassium channel, sequence (Q12809 whole entry, looked up): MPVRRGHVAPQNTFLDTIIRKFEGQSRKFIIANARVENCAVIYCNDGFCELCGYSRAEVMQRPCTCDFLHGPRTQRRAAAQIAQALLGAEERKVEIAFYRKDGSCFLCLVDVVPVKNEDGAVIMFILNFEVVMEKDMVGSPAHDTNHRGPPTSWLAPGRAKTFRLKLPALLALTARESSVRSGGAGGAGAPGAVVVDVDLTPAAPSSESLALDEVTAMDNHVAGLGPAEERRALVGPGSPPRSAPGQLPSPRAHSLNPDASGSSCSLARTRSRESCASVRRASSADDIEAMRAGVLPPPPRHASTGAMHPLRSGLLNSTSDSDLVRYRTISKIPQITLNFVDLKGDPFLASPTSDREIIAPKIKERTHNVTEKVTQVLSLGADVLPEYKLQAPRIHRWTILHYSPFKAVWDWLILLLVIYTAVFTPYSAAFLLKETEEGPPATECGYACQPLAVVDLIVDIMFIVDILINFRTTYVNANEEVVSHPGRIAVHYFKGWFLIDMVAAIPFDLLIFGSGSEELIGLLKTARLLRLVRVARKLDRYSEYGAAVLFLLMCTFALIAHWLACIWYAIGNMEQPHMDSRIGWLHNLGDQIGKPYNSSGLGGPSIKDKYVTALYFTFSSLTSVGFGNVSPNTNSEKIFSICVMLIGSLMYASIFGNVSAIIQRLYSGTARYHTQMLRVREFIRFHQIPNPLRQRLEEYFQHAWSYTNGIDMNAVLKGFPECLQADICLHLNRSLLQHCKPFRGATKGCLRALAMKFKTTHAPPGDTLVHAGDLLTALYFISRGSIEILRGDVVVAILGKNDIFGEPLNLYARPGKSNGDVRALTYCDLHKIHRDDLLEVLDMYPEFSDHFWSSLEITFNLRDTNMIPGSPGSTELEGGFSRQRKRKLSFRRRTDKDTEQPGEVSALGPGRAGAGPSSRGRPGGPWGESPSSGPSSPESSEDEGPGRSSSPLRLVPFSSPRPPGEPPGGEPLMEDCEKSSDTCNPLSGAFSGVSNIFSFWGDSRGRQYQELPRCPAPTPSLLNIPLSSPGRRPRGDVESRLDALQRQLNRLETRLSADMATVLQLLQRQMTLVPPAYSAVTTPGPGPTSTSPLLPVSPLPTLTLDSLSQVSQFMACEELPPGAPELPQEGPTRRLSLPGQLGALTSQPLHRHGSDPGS

| Structure (SMILES) | hERG current change (%, negative = inhibition) at 10uM [%] |
| --- | --- |
| Cc1ccc(-c2cc(-c3nnc(SCC(=O)N(C)CCC#N)n3N)c3ccccc3n2)cc1 | -4.08 |
| Cc1ccc(CCC(=O)Nc2ccc(Br)cc2)o1 | 2.32 |
| Cc1ccc(Cl)c2c(N=Nc3ccccc3)c(O)[nH]c12 | 11.4 |
| COc1ccc(C(=O)NCc2nnc(SCC(=O)N3CCC(C)CC3)o2)cc1 | 16.8 |
| O=S(=O)(/C=C/c1ccccc1)NC1CCCCCC1 | -16.5 |
| COc1ccc(C2=NOC(C(=O)Nc3ccc4c(c3)OCO4)C2)cc1 (centres unmarked) | 10.3 |
| Cc1c(NC(=O)c2cccs2)c(=O)n(-c2ccccc2)n1C | 3.8 |
| Cc1cc(Br)ccc1NC(=O)CNC(=O)CSc1n[nH]c(N)n1 | 18.5 |
| COc1ccc(Cc2nc(-c3ccccc3)no2)cc1 | 5.4 |
| CN(C)Cc1c(C(=O)N/N=C/c2ccncc2)nnn1-c1nonc1N | 3.67 |
| COC(=O)C1=C(O)/C(=C\c2cc(C)n(-c3ccccc3F)c2C)N=C1C | 14.9 |
| Cc1ccc(OCC(=O)N(Cc2ccccc2)c2c(N)n(Cc3ccccc3)c(=O)[nH]c2=O)c(C)c1 | 5.3 |
| CCOC(=O)Cn1cnc2c(nnn2-c2ccc(F)cc2)c1=O | 0.606 |
| COc1ccc(CNC(=O)CN(C)Cc2ccc(SC)cc2)cc1 | -65.2 |
| CCCNC(=S)Nc1ccccc1 | 20.3 |
| O=C(O)Cc1sc(NCc2ccco2)nc1-c1ccccc1 | -8.64 |
| Cc1cc(NC(=O)c2ccco2)c(=O)n(Cc2c(F)cccc2Cl)c1 | 3.91 |
| COc1ccc(-n2c(C)nc3sc4c(c3c2=O)CCCC4)cc1 | -20.3 |
| CCOc1ccc(NC(=O)COC(=O)CNC(=O)c2ccc(-c3ccccc3)cc2)cc1 | 2.3 |
| CC(C)NC(=O)COC(=O)c1ccc(NS(=O)(=O)c2ccc3c(c2)OCCO3)cc1 | -3.56 |
| CCn1c2ccccc2c2nnc(SCCCn3c(=O)[nH]c4ccccc43)nc21 | -5.22 |
| CCOC(=O)c1oc2ccccc2c1NC(=O)CN1CCN(C)CC1 | -58.4 |
| CSc1nnc2n(Cc3ccccc3)c(=O)c3c4c(sc3n12)COC(C(C)C)C4 (centres unmarked) | 2.83 |

| Structure (SMILES) | hERG current change (%, negative = inhibition) at 10uM [%] |
| --- | --- |
| COc1cc(-c2cn(S(=O)(=O)c3cccc4nsnc34)nc2N)cc(OC)c1OC | -15.5 |
| C(=N\NC1=Nc2cccc3cccc1c23)/c1ccccc1 | 9.92 |
| O=C(Nc1ccccc1)N(Cc1ccc(Cl)cc1)CC(O)C(F)(F)F (centres unmarked) | 8.33 |
| O=[N+]([O-])c1ccc(Nc2nc(NC3CCCCC3)nc(N3CCCC3)n2)cc1 | 13.5 |
| CCNC(=O)/C=C1\NC(C)(C)Cc2c1ccc1ccccc21 | -16.5 |
| CC1CCN(S(=O)(=O)c2ccc(C(=O)Nc3nnc(-c4ccncc4)o3)cc2)CC1 | -8.76 |
| Cc1cc(C(=O)Nc2ccc(Cl)c(S(=O)(=O)N3CCOCC3)c2)c2ccccc2n1 | -13.7 |
| COc1ccc(S(=O)(=O)N2CCCC(C(=O)NCc3ccc(F)cc3)C2)cc1 (centres unmarked) | 6.39 |
| O=C(CSc1nncc(=O)[nH]1)Nc1cccc([N+](=O)[O-])c1 | -40.9 |
| COc1cc(/C=N/n2c(C3CCCCC3)n[nH]c2=S)cc(OC)c1O | 16.8 |
| CN1CC[C@@]2(C)c3cc(O)ccc3N(C)C2O1 (some centres unmarked) | -6.32 |
| Fc1ccc(Cn2nnnc2C(c2cccs2)N2CCN(C3CCCCC3)CC2)cc1 (centres unmarked) | -66.4 |
| CCOc1cc(/C=N\Nc2nc(-c3ccc(C)cc3)c(NC(C)=O)s2)ccc1O | -3.16 |
| Cc1cc(O)c2c3c(c(=O)oc2c1)CCC(C)C3 (centres unmarked) | -0.686 |
| CN(C)C(=Nc1ccccc1)P(=S)(N(C)C)N(C)C | 2.68 |
| COc1ccc(CCN(C)C(=O)C2CC(=O)N(Cc3ccc(C)cc3)C2)cc1OC (centres unmarked) | 0.405 |
| CC1(C)OC(=O)C=C(CC2NS(=O)(=O)OC3CCCCC23)O1 (centres unmarked) | -0.0926 |
| COC(=O)CSCc1nc2ccccc2[nH]c1=O | 18.4 |
| COc1ccccc1NC(=O)C1C2C=CC3(CN(Cc4cccnc4)C(=O)C13)O2 (centres unmarked) | 7.4 |
| Cc1ccccc1-c1cc2nc(-c3ccc([N+](=O)[O-])cc3)cc(=O)n2[nH]1 | 30.3 |
| O=c1c(C=Nc2ccc(Cl)cc2)c[nH]n1-c1cccc(Cl)n1 | 13.7 |
| O=S(=O)(c1ccc(Cl)cc1Cl)n1ccc2cccnc21 | 8.24 |
| CCN1CCN(S(=O)(=O)c2ccc(Cl)c(C(=O)NC(C)c3ccccc3Cl)c2)CC1 (centres unmarked) | -20.3 |

| Structure (SMILES) | hERG current change (%, negative = inhibition) at 10uM [%] |
| --- | --- |
| Cc1nnc(NN2CCOCC2)[nH]c1=O | 20.9 |
| CCNC(=O)CC1SC(=Nc2cccc3ccccc23)N(C)C1=O (centres unmarked) | 5.05 |
| Cc1c(Cl)ccc2sc(NC(=O)C3CC3)nc12 | 12.3 |
| COCCCN1C(=O)c2ccc(C(=O)O)cc2C1=O | -0.568 |
| O=C(Nc1nnc(SCc2ccccc2)s1)c1cccc([N+](=O)[O-])c1 | 4.61 |
| Cc1ccc(NC(=S)NCC(C)CSc2ccc(Cl)cc2)cc1 (centres unmarked) | 3.29 |
| Cc1ccc(NC(=O)CN2CCCN(S(=O)(=O)c3ccc(Br)s3)CC2)cc1 | -50.1 |
| COc1ccc(-c2nnc(CSc3nc4ccccc4c(=O)n3C)o2)cc1OC | -4.89 |
| [N-]=[N+]=CC(=O)CC(c1ccccc1)N1C(=O)c2ccccc2C1=O (centres unmarked) | 25 |
| O=S(=O)(NCC1CCN(c2ccc(S(=O)(=O)N3CCOCC3)cc2)CC1)c1ccc(F)cc1 | -11.7 |
| CSc1oc(-c2ccc(F)cc2)nc1S(=O)(=O)c1ccc(F)cc1 | 3.51 |
| CC(=O)c1ccc2c(c1)CC(C)C(=O)N2C (centres unmarked) | 1.75 |
| CCc1noc(C)c1C(=O)N1CCCC(N2CCN(c3cccc(Cl)c3)CC2)C1 (centres unmarked) | -1.09 |
| Cc1cc(C)cc(NC(=O)CSc2nc3ccccc3nc2N2CCCCC2)c1 | 8.14 |
| CC(=O)Nc1cccc([As](=O)(c2cccc(NC(C)=O)c2)c2cccc(NC(C)=O)c2)c1 | 2.67 |
| CCOC(=O)CC1=NC(=O)CS1 | 12 |
| CCN(CC)CC(C)CNC(=O)C1(O)c2ccccc2NC(=O)N1c1ccc(Cl)c(Cl)c1 (centres unmarked) | 3.31 |
| CCCc1cc(=O)oc2cc(OCc3nn[nH]n3)ccc12 | 1.1 |
| COc1cc(NC(=O)CN2C(=O)NC(C)(CC(C)C)C2=O)cc(OC)c1 (centres unmarked) | 13.6 |
| CCOC(=O)C1CCCN(CCSc2ccc(C)cc2)C1.Cl (centres unmarked) | -28.3 |
| N#Cc1c(NC(=S)NC(=O)Cc2cccs2)sc2c1CCCCC2 | 4.12 |
| COc1cc(CCC(=O)NCCc2ccc(F)cc2)cc(OC)c1OC | 8.49 |
| COc1ccc(C2SCCN2C(=S)Nc2cccc(Cl)c2)cc1 (centres unmarked) | -0.256 |

| Structure (SMILES) | hERG current change (%, negative = inhibition) at 10uM [%] |
| --- | --- |
| CN1CCc2c1nc1ccccc1c2N=C1CCCN1Cc1ccccc1.Cl | 0.531 |
| CC(=O)Nc1ccc(/C(C)=N/NS(=O)(=O)c2ccc(C)cc2)cc1 | 0.256 |
| NC(=O)C1CCCN(CC(=O)Nc2cc(S(=O)(=O)N3CCOCC3)ccc2N2CCCC2)C1 (centres unmarked) | 2.5 |
| O=C(CCSc1nc2ccccc2s1)N/N=C/c1c(O)ccc2ccccc12 | 21.2 |
| CCOC(=O)C(=O)N/N=C/c1ccco1 | 11.3 |
| CCOC(=O)CN1C(=O)CN(c2ccc(C)cc2)C1=O | 1.51 |
| O=C(NCc1ccccc1)C(c1ccccc1)N(Cc1cccs1)C(=O)c1cnccn1 (centres unmarked) | -30.5 |
| Nc1ccc(-n2cc(-c3ccccc3)[nH]c2=S)cc1 | 33.3 |
| Cc1c(C(=O)O)oc2ccc(S(=O)(=O)NCc3ccc(F)cc3)cc12 | 0.999 |
| Cc1c(C(=O)O)sc2nc(-c3cccs3)cc(C(F)(F)F)c12 | 25.8 |
| CCN(C(=O)CN1C(=O)S/C(=C\c2ccc(F)cc2)C1=O)C1CCS(=O)(=O)C1 (centres unmarked) | -19.8 |
| CCOC(=O)c1cnc(-n2nc(C)cc2C)nc1NNc1cc(-c2ccccc2)nc(C)n1 | 11.2 |
| CCOC(=O)Cc1csc(NC(=O)Cc2ccc(C)cc2)n1 | -18 |
| Cc1ccc(S(=O)(=O)Oc2ccccc2/C=N/NC(=O)c2nn(C)cc2[N+](=O)[O-])cc1 | 0.0535 |
| O=C(COC(=O)c1ccccc1)NCC1CCCO1 (centres unmarked) | 3.16 |
| Cc1cc(C)c(S(=O)(=O)N2CCN(C(=O)N3CCCCC3)CC2)c(C)c1 | -4.39 |
| CCN(Cc1ccncc1)Cc1nc(-c2ccc(C(=O)OC)cc2)no1 | -13.5 |
| CC(=O)N1CCC2(CC1)NC(=O)N(c1ccccc1)N2 | -2.09 |
| CCCn1c(SCC(=O)Nc2ccccc2Oc2ccccc2)n[nH]c1=O | -17 |
| Cc1cc(Nc2ccc3c(c2)OCCO3)c2cccc(C)c2n1.Cl | -40.7 |
